# “And” between values parts separate entries of the source, which are not always exact repeats. Equal values may be shown once. The campaign covered roughly 73,000 compounds. About 1,800 (2.5%) were called active. The inconclusive results got no clear call from the source; some entries with a clear call stand among them for comparison. Calls come from the whole dose curve; as a rule, active = well fitted activation curve with a large enough effect; inconclusive = small, poorly fitted or top-dose-only effect; inactive = no such curve, though single readings can be large or run the other way. Where the call is inconclusive, the potency comes from a doubtful curve fit.
# Assay: qHTS Assay for Agonists of the Thyroid Stimulating Hormone Receptor: Activators of Intracellular cAMP Concentrations in Parental HEK 293; note: nearly all actives have a fitted effect of over 55% in size; for activation: % of control where 0% means no effect
# Settings: parental HEK293 CNG cAMP sensor, membrane potential fluorescence; activation: at 57.1 µM (top of the series) unless noted
# Method in brief: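 Parental HEK 293 cells stably expressing a modified CNG channel (no TSHR) report cAMP rise as membrane depolarization. Membrane potential dye with 100 uM RO 20-1724 was loaded for 60 min at room temperature, then compound added for 30 min; fluorescence read at 590 nm.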
# Potency is the fitted concentration of half-maximal effect; tags give direction and shape of the fitted curve.
SMILES,Potency,activation
CCOC(=O)Cn1c(CN(Cc2ccccc2)Cc2ccccc2)nc2c1c(=O)n(C)c(=O)n2C,"inconclusive: 15.8 µM [activator, partial curve]",–
CCc1ccc2oc(=O)cc(CN3CCC(C)CC3)c2c1,"inconclusive: 31.6 µM [activator, partial curve]",–
CC1Oc2ccccc2N(CC(=O)c2cccc(Cl)c2)C1=O (configuration not stated),"inconclusive: 3.98 µM [activator, full curve, poor fit]",–
Cc1c(C)n(C)c2ccc(C(=O)NCc3cccs3)cc12,–,inactive: 22.5%
COc1ccc(-c2nn(-c3ccccc3)cc2CO)cc1OC,–,inactive: -6.8% [at 11.4 µM]
O=C(c1cc(-c2ccc3c(c2)OCO3)on1)N1CCN(c2ccc(F)cc2)CC1,active: 31.6 µM,–
O=C(NCCc1ccc2c(c1)OCO2)C1CCN(S(=O)(=O)c2ccc(Cl)cc2)CC1,active: 12.6 µM,–
c1ccc(-c2ccc(CN3CCN(c4ncccn4)CC3)cc2)cc1,"inconclusive: 31.6 µM [activator, single point]",–
Nc1[nH]c(=O)nc2c1ncn2[C@H]1O[C@@H](CO)[C@@H](O)[C@@H]1O,–,inactive: 4.23% [at 11.4 µM]
O=C(OCc1nnc(-c2ccccc2)o1)c1cc(=O)c2ccccc2o1,"inconclusive: 1.26 µM [activator, single point]",–
COc1ccc(-c2cc3nc(-c4ccccc4)cc(N4CCC5(CC4)OCCO5)n3n2)cc1,–,inactive: 14.8%
CCOC(=O)c1ccc(NC(=O)CCc2ccc(C)o2)cc1,"inconclusive: 10 µM [activator, partial curve, poor fit]",–
CCOc1ccc(C2CC(c3cccc(C)c3)n3ncnc3N2)cc1 (configuration not stated),"inconclusive: 31.6 µM [activator, single point]",–
CCN(CC)C[C@@H]1CCCCN1CC(=O)N1c2ccccc2C(=O)Nc2cccnc21,–,inactive: 12.5%
COc1ccc(C(=O)N2CCC3(CCN(C(=O)Nc4cccc(F)c4)CC3)CC2)cc1,"inconclusive: 3.98 µM [activator, partial curve]",–
O=c1c2ccccc2nc2n1CCS2,–,inactive: 4.16%
COc1ccccc1N1CCN(C(c2ccc(C)cc2)c2nnnn2C(C)C)CC1 (configuration not stated),active: 15.8 µM,–
CCOc1cc(C(=O)Nc2cnccn2)cc(OCC)c1OCC,"inconclusive: 31.6 µM [activator, single point]",–
Nc1cc(Cl)c(N)c(Cl)c1,–,inconclusive: 33.4% [activator]
Cc1cccc(CNc2nc(-c3cccc(NS(C)(=O)=O)c3)nc3ccccc23)c1,"inconclusive: 20 µM [activator, partial curve]",–
COc1ccccc1-n1c(=O)oc2ccc(Cl)cc2c1=O,–,inactive: -0.64%
C/C(=C\COc1cc(=O)[nH]c2ccccc12)CC[C@@H](O)C(C)(C)O,–,inactive: -4.33%
COc1cccc(-c2noc(C3CCCN(C(=O)Cc4ccccc4)C3)n2)c1 (configuration not stated),"inconclusive: 25.1 µM [activator, partial curve]",–

SMILES,Potency,activation
COc1cccc(Nc2ncc3nc(CCc4ccccc4)c(=O)n(Cc4cccs4)c3n2)c1,"inconclusive: 39.8 µM [activator, single point]",–
Cc1cncn1CCc1nc2c3ccccc3nc(=S)n2[nH]1,"inconclusive: 3.98 µM [activator, partial curve]",–
CC1(C)CC(=O)C(C=Nc2ccccc2)=C(O)C1,"inconclusive: 25.1 µM [activator, partial curve]",–
CC(CCc1ccco1)NC(=O)Nc1cccc(F)c1 (configuration not stated),"inconclusive: 10 µM [activator, partial curve]",–
CCc1cc2ccccc2nc1SCC(=O)N1CCN(C(=O)c2ccco2)CC1,"inconclusive: 10 µM [activator, partial curve]",–
Cc1ccc2cc(-c3noc(C(C)(C)C)n3)c(=O)[nH]c2c1,"inconclusive: 3.16 µM [activator, single point]",–
CN1CCN(c2ncc3nc(-c4cccs4)c(=O)n(Cc4ccc(F)cc4)c3n2)CC1,"inconclusive: 10 µM [activator, partial curve]",–
COc1ccc(O)c(CN2CCN(C/C=C/c3ccccc3)CC2)c1,"inconclusive: 25.1 µM [activator, partial curve]",–
CN1CCN2c3ccccc3Cc3ccccc3[C@@H]2C1,"inconclusive: 31.6 µM [activator, single point] and inconclusive: 5.01 µM [activator, partial curve] and inconclusive: 7.94 µM [activator, full curve]",–
CCCn1c(-c2ccc(F)cc2)nc2c(NCC(C)(C)CN(C)C)nc(C)nc21,active: 25.1 µM,–
CCOC(=O)c1c(NC(=O)CSc2nnc(-c3ccccc3C)n2C)sc(C(C)=O)c1C,"inconclusive: 15.8 µM [activator, partial curve]",–
O=C(c1ccccc1Oc1ccccc1)N1CCN(c2ccccc2)CC1,"inconclusive: 15.8 µM [activator, partial curve]",–
COc1ccc(N(CC(=O)NC2CCCC2)C(=O)Cn2nnc(-c3ccc(C)cc3)n2)cc1OC,"inconclusive: 39.8 µM [activator, single point]",–
Cc1nn(-c2ccccc2)c2c1/C(=N/O)CC(C)(C)C2,active: 25.1 µM,–
O=c1c(-c2ccc(F)cc2)nc2cnc(Oc3ccccc3)nc2n1C[C@H]1CCCO1,–,inactive: 20.3%
CN(C)Cc1ccccc1-c1cc(N(C)Cc2ccco2)ncn1,"inconclusive: 0.158 µM [activator, full curve, poor fit]",–
CCN1CCC(O)([C@H](C(=O)O)c2ccccc2)CC1,–,inactive: 12.4% [at 11.4 µM]
CN1CCC[C@@H](CC2c3ccccc3Sc3ccccc32)C1,"inconclusive: 7.94 µM [activator, single point]",–
Cc1cc(C)cc(OCC(=O)NCCN2CCOCC2)c1,–,inactive: 2.16%
C=C(C)c1cccc(C(C)(C)NC(=O)N2CCN(c3ccccn3)CC2)c1,"inconclusive: 25.1 µM [activator, single point]",–
Cc1c(C)[n+](=O)c2c(n1[O-])CCCCC2,"inconclusive: 31.6 µM [activator, single point]",–
Cc1ccc(N2C(=O)c3ccc(N)cc3C2=O)cc1,–,inactive: -30.5%
O=C1c2ccccc2-c2ccc(NC(=O)[C@H]3CCCC[C@@H]3C(=O)O)cc21,–,inactive: 2.2% [at 11.4 µM]

SMILES,Potency,activation
O=C(c1cnn2c(C(F)F)cc(-c3ccccc3)nc12)N1CCOCC1,"inconclusive: 20 µM [activator, partial curve]",–
COc1cccc(-n2c(C)nc3c(cnn3-c3ccc(C)cc3)c2=O)c1,"inconclusive: 25.1 µM [activator, single point]",–
O=C(c1cccc(C(=O)N2CCN(c3ccc(F)cc3)CC2)c1)N1CCN(c2ccc(F)cc2)CC1,"inconclusive: 1.26 µM [activator, single point]",–
OCCN1CCN(CC#CCn2c3ccccc3c3ccccc32)CC1,"inconclusive: 1.58 µM [activator, full curve]",–
CCOC(=O)c1cc2c(=O)n(C)c3ccccc3c2s1,"inconclusive: 3.98 µM [activator, single point]",–
O=C(CN1C(=O)c2ccccc2S1(=O)=O)N1CCOCC1,"inconclusive: 3.98 µM [activator, single point]",–
O=C(CSc1ncnc2c1cnn2Cc1ccccc1)Nc1ccc2c(c1)OCCO2,"inconclusive: 39.8 µM [activator, single point]",–
O=C(Nc1ccc(NC(=O)C2CC2)nc1)c1ccco1,"inconclusive: 25.1 µM [activator, partial curve]",–
O=C(NCc1ccc2c(c1)OCO2)c1cc(S(=O)(=O)N2CCCCC2)ccc1F,"inconclusive: 10 µM [activator, partial curve]",–
COc1cccc(CN(Cc2ccco2)C(c2ccc(F)cc2)c2nnnn2C(C)(C)C)c1 (configuration not stated),"inconclusive: 6.31 µM [activator, partial curve]",–
O=C1C=CC2=C3c4cc(O)c(O)cc4C[C@@]3(O)COC2=C1O,–,inactive: 1%
O=C(CSc1nnc(CNC(=O)c2cccs2)o1)Nc1cccc(C(F)(F)F)c1,"inconclusive: 3.16 µM [activator, partial curve]",–
N#Cc1cccc(-c2nccc(NCc3cccnc3)n2)c1,–,inactive: 8.74%
CCCCC(CC)CNC(=O)c1ccc2c(c1)OCO2 (configuration not stated),active: 3.98 µM,–
CCCCCCCCCCCCCCCCCCNC(=O)OC[C@@H](COP(=O)([O-])OCC[n+]1ccsc1)OC,"inconclusive: 39.8 µM [activator, single point]",–
Cc1c(C)c2c(c(C)c1O)CC[C@@](C)(CN1CCN(c3cc(N4CCCC4)nc(N4CCCC4)n3)CC1)O2,"inconclusive: 6.31 µM [activator, single point]",–
O=C(c1ccncc1)N1CCC[C@@]2(CCN(c3cccc(-c4ccccc4)c3)C2)C1,–,inactive: 14.2%
O=C(NC12CC3CC(CC(C3)C1)C2)C1CCCN1C(=O)NC1CCCCC1 (configuration not stated),"inconclusive: 6.31 µM [activator, single point]",–
CCCC[C@@H]1C[C@H]1C(NC(=O)c1ccccc1)c1ccc(-c2ccccc2)cc1 (some centres not stated),–,inactive: 20.9%
CC(C)C[C@@H](CC(=O)N[C@H](CC(=O)N[C@@H]1CCNC[C@H]1C(=O)N[C@H](CC(=O)N[C@@H](CCC(=O)O)CC(=O)O)Cc1c[nH]c2ccccc12)C(C)C)NC(=O)[C@@H]1CNCC[C@H]1N,–,inactive: 5.15%
CC1CCCCN1CCNC(=O)c1cnn2ccccc12 (configuration not stated),"inconclusive: 31.6 µM [activator, single point]",–

# — PubChem BioAssay AID938 (National Center for Advancing Translational Sciences (NCATS), 2007)
